In assay [1] the test system is RAW-Dual. Nature of the assay: NF-kB SEAP reporter activity, fold change vs agonist alone; higher = enhanced NF-kB activity. Summed up:
(§1)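 RAW-Dual macrophages (50,000 cells/well in DMEM, 384-well plates) received 50 nL of library stock by pin tool, then a PRR agonist 1 h later, and were kept at 37 °C, 5% CO2. After 20 hours, supernatant was read for IRF by QuantiLuc luminescence and for NF-κB by QuantiBlue absorbance at 620 nm. Reporter activity is fold change over agonist-alone wells. Cytotoxic wells had IncuCyte confluency below 70% of agonist controls in both mask sets.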

Assay [2] has as its system RAW-Dual. The assay can be described thus: NF-kB SEAP reporter activity, fold change vs agonist alone; cytotoxicity flag (confluency mask): not cytotoxic; higher = enhanced NF-kB activity. Summed up: as §1
Assay [3] has as its system RAW-Dual. Nature of the assay: NF-kB SEAP reporter activity, fold change vs agonist alone; cytotoxicity flag (confluency mask): cytotoxic (confluency <70% of control); higher = enhanced NF-kB activity. In outline:
as §1

[4] abbreviates: library stock concentration (final ~1000-fold dilution): 10 mM, cytotoxicity flag (confluency mask): not cytotoxic, agonist: Imiquimod (TLR7) […].
[5] abbreviates: library stock concentration (final ~1000-fold dilution): 10 mM, cytotoxicity flag (confluency mask): not cytotoxic, agonist: MPLA (TLR4) […].
Setting [6] is: agonist: ODN 1826 (TLR9) 0.5 ug/mL.
The mark [7] stands for this setting: agonist: Pam2CSK4 (TLR2/6) 0.1 ug/mL.
The mark [8] stands for this setting: agonist: Pam3CSK4 (TLR2/1) 0.1 ug/mL.
Setting [9] is: library stock concentration (final ~1000-fold dilution): 10 mM, cytotoxicity flag (confluency mask): cytotoxic (confluency <70% of control), agonist: Imiquimod (TLR7) […].
Where [10] appears, read: library stock concentration (final ~1000-fold dilution): 10 mM, cytotoxicity flag (confluency mask): cytotoxic (confluency <70% of control), agonist: MPLA (TLR4) […].

Over roughly 2,900 compounds, “NF-kB SEAP reporter activity, fold change vs agonist alone” has its median near 0.99; the highest 2% begin near 2.6. The list shows a part of the results.

Take `CNC(C)C(=O)NC1CN(C(=O)CC(C)C)CCC2CCC(C(=O)NC(c3ccccc3)c3ccccc3)N2C1=O` (stereo unspecified): the “NF-kB SEAP reporter activity” value in the assay on RAW-Dual [1] (setting [4]) is 0.948; in the assay on RAW-Dual [1] (setting [5]), 0.82.
`CNC(C)C(=O)NC1CN(C(=O)CC(C)C)CCC2CCC(C(=O)NC(c3ccccc3)c3ccccc3)N2C1=O` (stereo unspecified) (library stock concentration (final ~1000-fold dilution): 10 mM): the “NF-kB SEAP reporter activity” value was 0.854 in the assay on RAW-Dual [2] (agonist: LPS (TLR4) 0.1 ug/mL), 1.1 with RAW-Dual [2] (setting [6]), 0.925 in the assay on RAW-Dual [2] (setting [7]) and 1.08 in the assay on RAW-Dual [2] (setting [8]).
Regarding `Clc1ccc2c(c1)CCc1cccnc1C2=C1CCNCC1`, the “NF-kB SEAP reporter activity” value worked out at 1.49 with RAW-Dual [1] (setting [9]) and 1.3 with RAW-Dual [1] (setting [10]).
Take `Clc1ccc2c(c1)CCc1cccnc1C2=C1CCNCC1` (library stock concentration (final ~1000-fold dilution): 10 mM): the “NF-kB SEAP reporter activity” value with RAW-Dual [3] (agonist: LPS (TLR4) 0.1 ug/mL) is 0.944; in the assay with RAW-Dual [3] (setting [6]), 0.513; in the assay on RAW-Dual [3] (setting [7]), 0.804; in the assay with RAW-Dual [3] (setting [8]), 0.831.
The matching figures for `O=C(Nc1c[nH]nc1-c1nc2cc(CN3CCOCC3)ccc2[nH]1)NC1CC1` (library stock concentration (final ~1000-fold dilution): 10 mM): 0.238, 0.21, 0.0962 and 0.148.
As for `O=C(Nc1c[nH]nc1-c1nc2cc(CN3CCOCC3)ccc2[nH]1)NC1CC1`, the “NF-kB SEAP reporter activity” value with RAW-Dual [1] (setting [9]) was found to be 0.338; in the assay on RAW-Dual [1] (setting [10]) it was 0.256.
For `Cl.O=C(O)/C=C/c1ccc(Cn2ccnc2)cc1` (library stock concentration (final ~1000-fold dilution): 10 mM), the “NF-kB SEAP reporter activity” value is 1.01 with RAW-Dual [2] (agonist: LPS (TLR4) 0.1 ug/mL), 0.938 with RAW-Dual [2] (setting [6]), 1.06 in the assay on RAW-Dual [2] (setting [7]) and 1.09 in the assay on RAW-Dual [2] (setting [8]).
In the case of `Cl.O=C(O)/C=C/c1ccc(Cn2ccnc2)cc1`, the “NF-kB SEAP reporter activity” value with RAW-Dual [1] (setting [4]) came out at 0.935; in the assay with RAW-Dual [1] (setting [5]), 1.02.
As to `Nc1nc(NCCNc2ncc(-n3ccnc3)c(-c3ccc(Cl)cc3Cl)n2)ccc1[N+](=O)[O-]` (library stock concentration (final ~1000-fold dilution): 10 mM), the “NF-kB SEAP reporter activity” value in the assay with RAW-Dual [2] (agonist: LPS (TLR4) 0.1 ug/mL) was 2.5; with RAW-Dual [2] (setting [6]), 2.96; in the assay with RAW-Dual [2] (setting [7]), 1.46; in the assay on RAW-Dual [2] (setting [8]), 2.83.
Turning to `Nc1nc(NCCNc2ncc(-n3ccnc3)c(-c3ccc(Cl)cc3Cl)n2)ccc1[N+](=O)[O-]`, the “NF-kB SEAP reporter activity” value came out at 2.49 in the assay on RAW-Dual [1] (setting [4]) and 2.25 in the assay on RAW-Dual [1] (setting [5]).
Regarding `O=C(NC1(c2ccccc2)CC1)c1c(CN2CCC(N3CCCCC3)CC2)c(-c2cccc(C(F)(F)F)c2)nc2cc(Br)ccc12` (library stock concentration (final ~1000-fold dilution): 10 mM), the “NF-kB SEAP reporter activity” value in the assay with RAW-Dual [3] (agonist: LPS (TLR4) 0.1 ug/mL) amounted to 2.58.
As for `CCN(CC)c1ccc2cc(C(=O)O)c(=O)oc2c1`, the “NF-kB SEAP reporter activity” value in the assay on RAW-Dual [1] (setting [5]) stood at 0.899.
For the compound `CCN(CC)c1ccc2cc(C(=O)O)c(=O)oc2c1` (library stock concentration (final ~1000-fold dilution): 10 mM), the “NF-kB SEAP reporter activity” value with RAW-Dual [2] (agonist: LPS (TLR4) 0.1 ug/mL) was 1.23; in the assay with RAW-Dual [2] (setting [6]), 0.807; in the assay on RAW-Dual [2] (setting [7]), 1.3; in the assay on RAW-Dual [2] (setting [8]), 0.86.
The matching figures for `CSC(=N)N` (library stock concentration (final ~1000-fold dilution): 10 mM water): 1.13, 1.14, 1.2 and 1.26.
Consider `CSC(=N)N`, for which the “NF-kB SEAP reporter activity” value stood at 0.949 with RAW-Dual [1] (library stock concentration (final ~1000-fold dilution): 10 mM water, cytotoxicity flag (confluency mask): not cytotoxic, agonist: Imiquimod (TLR7) […]) and 0.991 in the assay on RAW-Dual [1] (library stock concentration (final ~1000-fold dilution): 10 mM water, cytotoxicity flag (confluency mask): not cytotoxic, agonist: MPLA (TLR4) […]).
With `CCN(CC)CCCC(C)Nc1c2ccc(Cl)cc2nc2ccc(OC)cc12.Cl.Cl` (stereo unspecified) (library stock concentration (final ~1000-fold dilution): 10 mM), the “NF-kB SEAP reporter activity” value stood at 0.204 in the assay on RAW-Dual [3] (agonist: LPS (TLR4) 0.1 ug/mL), 0.174 in the assay on RAW-Dual [3] (setting [6]), 0.0921 in the assay with RAW-Dual [3] (setting [7]) and 0.216 in the assay on RAW-Dual [3] (setting [8]).
Consider `CCN(CC)CCCC(C)Nc1c2ccc(Cl)cc2nc2ccc(OC)cc12.Cl.Cl` (stereo unspecified), for which the “NF-kB SEAP reporter activity” value with RAW-Dual [1] (setting [9]) came out at 0.24; with RAW-Dual [1] (setting [10]), 0.536.
On the same counts, the results for `COCCNC(=O)Nc1ccc2nc(-c3cccs3)c(-c3cccs3)nc2c1` are 0.238 and 0.305.
Turning to `COCCNC(=O)Nc1ccc2nc(-c3cccs3)c(-c3cccs3)nc2c1` (library stock concentration (final ~1000-fold dilution): 10 mM), the “NF-kB SEAP reporter activity” value with RAW-Dual [3] (agonist: LPS (TLR4) 0.1 ug/mL) was 0.606; in the assay with RAW-Dual [3] (setting [6]), 0.322; in the assay on RAW-Dual [3] (setting [7]), 0.0902; in the assay with RAW-Dual [3] (setting [8]) it was 0.284.
In the case of `CC(C)c1ccccc1Cc1cc(C(=O)Nc2ccc(S(=O)(=O)c3ccccc3C(C)(C)C)cc2)c(O)c(O)c1O`, the entries for the “NF-kB SEAP reporter activity” value in the assay with RAW-Dual [1] (setting [4]) and in the assay with RAW-Dual [1] (setting [5]) were 2.56 and 2.31, respectively.
As to `CC(C)c1ccccc1Cc1cc(C(=O)Nc2ccc(S(=O)(=O)c3ccccc3C(C)(C)C)cc2)c(O)c(O)c1O` (library stock concentration (final ~1000-fold dilution): 10 mM), the “NF-kB SEAP reporter activity” value in the assay on RAW-Dual [2] (agonist: LPS (TLR4) 0.1 ug/mL) stood at 2.37; in the assay with RAW-Dual [2] (setting [6]), 1.67; in the assay on RAW-Dual [2] (setting [7]) it was 0.541; in the assay on RAW-Dual [2] (setting [8]) it was 1.
Take `Cc1cc(C(=O)Nc2nc3cccc(Cl)c3n2C2CCCCN(C(=O)/C=C/CN(C)C)C2)ccn1` (stereo unspecified): the “NF-kB SEAP reporter activity” value in the assay on RAW-Dual [1] (setting [4]) is 0.218; with RAW-Dual [1] (setting [5]) it was 0.678.
In the case of `Cc1cc(C(=O)Nc2nc3cccc(Cl)c3n2C2CCCCN(C(=O)/C=C/CN(C)C)C2)ccn1` (stereo unspecified) (library stock concentration (final ~1000-fold dilution): 10 mM), the “NF-kB SEAP reporter activity” value came out at 0.403 with RAW-Dual [2] (agonist: LPS (TLR4) 0.1 ug/mL), 0.168 in the assay on RAW-Dual [2] (setting [6]), 0.098 with RAW-Dual [2] (setting [7]) and 0.15 with RAW-Dual [2] (setting [8]).
`CC(CN1c2ccccc2Sc2ccccc21)N(C)C.Cl` (stereo unspecified): the entries for the “NF-kB SEAP reporter activity” value with RAW-Dual [1] (setting [4]) and with RAW-Dual [1] (setting [5]) were 1.81 and 1.24, respectively.
For the compound `CC(CN1c2ccccc2Sc2ccccc21)N(C)C.Cl` (stereo unspecified) (library stock concentration (final ~1000-fold dilution): 10 mM), the “NF-kB SEAP reporter activity” value with RAW-Dual [2] (agonist: LPS (TLR4) 0.1 ug/mL) was 0.982; in the assay with RAW-Dual [2] (setting [6]) it was 0.911; in the assay with RAW-Dual [2] (setting [7]) it was 0.74; with RAW-Dual [2] (setting [8]) it was 0.803.
On the same counts, the results for `CN(C)S(=O)(=O)c1ccc2c(c1)/C(=C/c1cc3c([nH]1)CCCC3)C(=O)N2` (library stock concentration (final ~1000-fold dilution): 10 mM) are 0.938, 1.46, 0.81 and 1.09.

For the origin of these results see the supplement of paper PMC10037445.
